Reference: patent US7592316B2, “Peptides as NS3-serine protease inhibitors of hepatitis C virus” (Schering Corporation, priority 2000, dated 2009)
*1 amine or outer side, *2 acyl side, *3 side chain or, on linkers, in order; H or OH if unused. Where a SMILES comes first, the peptide text is derived from it. [ ]: non-standard residue; d: D form. The star is where a group is joined. Pro(3R,4S-CMe2) = CC1(C)[C@@H]2[C@@H](C(=O)O)NC[C@@H]21; Pro(3S,4R-(CH2)3) = O=C(O)[C@H]1NC[C@@H]2CCC[C@@H]21; X32 = O=C(C(=O)[*:2])C(CC1CCC1)N[*:1]; X81 = O=C(C(=O)[*:2])C(CCC(F)F)N[*:1]; X2 = CCCC(N[*:1])C(=O)C(=O)[*:2]; Chg = N[C@H](C(=O)O)C1CCCCC1; Phg = N[C@H](C(=O)O)c1ccccc1; Tle = CC(C)(C)[C@H](N)C(=O)O; X18 = CC(C)C(C)OC(=O)*; Boc = CC(C)(C)OC(=O)*

Biological target: HCV NS3/NS4A protease (strain 1a) (Hepatitis C virus genotype 1a, UniProt P27958)
Assay: biochemical
Settings: Table 5; HCV NS3/NS4A protease, spectrophotometric assay, 30° C., pH 6.5; read-out: Ki* Range

Ki | SMILES
> 1000 nM | C=CCCNC(=O)C(=O)C(CCC=C)NC(=O)[C@@H]1[C@@H]2[C@H](CN1C(=O)[C@@H](N)C(C)(C)C)C2(C)C (stereo partly drawn)
> 1000 nM | C=CCNC(=O)C(=O)C(CCC)NC(=O)[C@@H]1CC(c2ccccc2)CN1S(=O)(=O)c1ccc(C)cc1 (stereo partly drawn)
101 to 1000 nM | CC1CCCC(OC(=O)N[C@H](C(=O)N2C[C@H]3[C@@H]([C@H]2C(=O)NC(CC2CC2)C(=O)C(N)=O)C3(C)C)C2CCCCC2)C1 (stereo partly drawn)
1 to 100 nM | C=CCCC(NC(=O)[C@@H]1[C@@H]2[C@H](CN1C(=O)[C@@H](NC(=O)NC(C)CC)C1CCCCC1)C2(C)C)C(=O)C(=O)NCC=C (stereo partly drawn)
101 to 1000 nM | CCCC(NC(=O)[C@@H]1[C@H]2[C@@H](CN1C(=O)[C@@H](NC(=O)OC(C)(C)C)C1CC3CCCCC3C1)C2(C)C)C(=O)C(N)=O (stereo partly drawn)
> 1000 nM | C=CCNC(=O)C(=O)C(CCCC)NC(=O)[C@@H]1[C@@H]2[C@H](CN1C(=O)[C@@H](NC(=O)OC(C)(C)C)C(C)(C)C)C2(C)C (stereo partly drawn)
> 1000 nM | C=CCNC(=O)C(=O)C(CCC)NC(=O)[C@@H]1[C@H]2[C@@H](CN1C(=O)[C@@H](NC(=O)CC1CCCC1)C1Cc3ccccc3C1)C2(C)C (stereo partly drawn)
> 1000 nM | CCCC(NC(=O)[C@@H]1C2CC(C3CC32)N1C(=O)C(NC(=O)OC(C)(C)C)C(C)(C)C)C(=O)C(=O)NCC(=O)N[C@@H](C(=O)N(C)C)c1ccccc1 (stereo partly drawn)
1 to 100 nM | CCCC(NC(=O)[C@@H]1C2CC(C3CC32)N1C(=O)C(NC(=O)OC(C)(C)C)C1CCCCC1)C(=O)C(=O)NCC(=O)NC(C(=O)N(C)C)c1ccccc1 (stereo partly drawn)
101 to 1000 nM | C=CCCC(NC(=O)[C@@H]1[C@H]2OC(C)(C)O[C@H]2CN1C(=O)[C@@H](NC(=O)OC(C)(C)C)C(C)(C)C)C(=O)C(=O)NCC(=O)N[C@H](C(=O)N(C)C)c1ccccc1 (stereo partly drawn)
> 1000 nM | CCCC(NC(=O)[C@@H]1C2C(CN1C(=O)C(NC(=O)Cc1cccnc1)C1CCCCC1)C2(C)C)C(=O)C(N)=O (stereo partly drawn)
1 to 100 nM | CCCC(NC(=O)[C@@H]1[C@@H]2[C@H](CN1C(=O)[C@@H](NC(=O)NC(C)(C)C)C1CCCCC1)C2(C)C)C(=O)C(N)=O (stereo partly drawn)
101 to 1000 nM | CC1(C)[C@@H]2[C@@H](C(=O)NC(CC3CC3)C(=O)C(N)=O)N(C(=O)[C@@H](CC(=O)OC3CCOC3)C3CCCCC3)C[C@@H]21 (stereo partly drawn)
> 1000 nM | CCCC(NC(=O)[C@@H]1C(c2ccccc2)CN1C(=O)C(NC(=O)OC(C)(C)C)C1CCCCC1)C(=O)C(N)=O (stereo partly drawn)
> 1000 nM | C=CCNC(=O)C(=O)C(CCC)NC(=O)C1C2CC(C3CC32)N1C(=O)C(NC(=O)OC(C)(C)C)C1CCCCC1 (stereo not drawn) [drawing 1810]

SMILES | Ki
CCCC(NC(=O)[C@@H]1[C@@H]2[C@H](CN1C(=O)[C@@H](NC(=O)OC(C)C(C)C)C(C)(C)C)C2(C)C)C(=O)C(=O)NCC(=O)N[C@H](C(=O)N(C)C)c1ccccc1 (stereo partly drawn) (X18-[Tle][Pro(3R,4S-CMe2)][X2]G[Phg]-NMe2) | 1 to 100 nM

Same assay, conditions: Table 6; HCV NS3/NS4A protease, 30° C., pH 6.5; read-out: Ki*

Ki | SMILES
1 to 100 nM | CCC1(NC(=O)N[C@H](C(=O)N2C[C@H]3[C@@H]([C@H]2C(=O)NC(CC2CCC2)C(=O)C(N)=O)C3(C)C)C(C)(C)C)CCCCC1 (stereo partly drawn)
> 1000 nM | C=CCCC(NC(=O)[C@@H]1[C@@H]2[C@H](CN1C(=O)C(NC(=O)OC(C)(C)C)C1CCCCC1)C2(C)C)C(=O)C(=O)NCCC(=O)NCCN(CC)CC (stereo partly drawn)
1 to 100 nM | C=CCCC(NC(=O)[C@@H]1[C@@H]2[C@H](CN1C(=O)[C@@H](NC(=O)OC(C)(C)C)C1CCCCC1)C2(C)C)C(=O)C(=O)NCCS(=O)(=O)N(C)C (stereo partly drawn)
1 to 100 nM | CN(C)C(=O)[C@@H](NC(=O)CNC(=O)C(=O)[C@@H](CC1CCC1)NC(=O)[C@@H]1[C@H]2CC(F)(F)C[C@H]2CN1C(=O)[C@@H](NC(=O)OC(C)(C)C)C1CCCCC1)c1ccccc1
101 to 1000 nM | CC(C)(C)OC(=O)N[C@H](C(=O)N1C[C@@H]2CC(F)(F)C[C@@H]2[C@H]1C(=O)NC(CC1CCC1)C(=O)C(N)=O)C(C)(C)C (stereo partly drawn)
1 to 100 nM | CC1(C)C2CN(C(=O)[C@@H](NC(=O)NC3(C(F)(F)F)CC3)C(C)(C)C)[C@H](C(=O)NC(CC3CCC3)C(=O)C(N)=O)C21 (stereo partly drawn)

SMILES | Ki
CN(C)C(=O)[C@@H](NC(=O)CNC(=O)C(=O)C(CC1CCC1)NC(=O)[C@@H]1[C@H]2CCC[C@H]2CN1C(=O)[C@@H](NC(=O)OC(C)(C)C)C1CCCCC1)c1ccccc1 (stereo partly drawn) (Boc-[Chg][Pro(3S,4R-(CH2)3)][X32]G[Phg]-NMe2) | 1 to 100 nM
CN(C)C(=O)[C@@H](NC(=O)CNC(=O)C(=O)C(CCC(F)F)NC(=O)[C@@H]1[C@@H]2[C@H](CN1C(=O)[C@@H](NC(=O)OC(C)(C)C)C(C)(C)C)C2(C)C)c1ccccc1 (stereo partly drawn) (Boc-[Tle][Pro(3R,4S-CMe2)][X81]G[Phg]-NMe2) | 1 to 100 nM
